PubChem BioAssay AID602310 (National Center for Advancing Translational Sciences (NCATS), 2012)
Out of some 410,000 compounds screened, about 310 (0.076%) were called active. Inconclusive means that the source gave no clear call. Such entries were picked first, then a sample of the others. Calls follow the shape of the dose curve; as a rule, active = well fitted curve in the direction sought with a large enough effect; inconclusive = small, poorly fitted or top-dose-only effect; inactive = flat fitted curve, though single readings scatter. A potency beside an inconclusive call is a rough fit, not a confirmed value.

These compounds were tested against DNA dC->dU-editing enzyme APOBEC-3G (Homo sapiens) (UniProt Q9HC16) (assay: qHTS for Inhibitors of Vif-A3G Interactions: qHTS). Conditions: HeLa A3G-eYFP + Vif (tagged APOBEC3G with the HIV-1 protein that degrades it), YFP fluorescence, overnight; series mostly up to 46.1 µM; activity, negative = active: at the top concentration.
Outline: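 HeLa cells stably expressing Vif and C-terminally eYFP-tagged A3G, seeded overnight at 37 deg C, then exposed to compound by pintool overnight at 37 deg C. Rise in yellow fluorescence (Ex 488/Em 500-530, Acumen) marks blocked Vif-driven A3G degradation.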
% is scaled to controls: 0 for no effect and ±100 for the full control effect; potency is read from the fitted curve at half-maximal effect; tags tell the direction and shape of the fitted curve.
Also: nearly all actives have a fitted effect of over 60% in size.
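For activity, negative = active in this document: hits raise eYFP signal because A3G escapes Vif-driven loss.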

UniProt Q9HC16, sequence (Q9HC16 whole entry, looked up): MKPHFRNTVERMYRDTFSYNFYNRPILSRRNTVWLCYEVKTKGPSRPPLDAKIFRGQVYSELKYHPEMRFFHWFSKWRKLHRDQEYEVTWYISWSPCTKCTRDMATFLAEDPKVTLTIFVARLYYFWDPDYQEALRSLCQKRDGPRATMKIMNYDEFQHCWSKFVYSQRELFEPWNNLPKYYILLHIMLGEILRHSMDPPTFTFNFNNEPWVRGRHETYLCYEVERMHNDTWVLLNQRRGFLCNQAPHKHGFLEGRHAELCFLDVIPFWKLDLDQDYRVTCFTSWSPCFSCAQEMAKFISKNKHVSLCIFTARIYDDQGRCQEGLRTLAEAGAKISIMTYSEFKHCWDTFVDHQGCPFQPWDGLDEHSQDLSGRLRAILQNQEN

SMILES	Potency	activity, negative = active
Cn1cc([N+](=O)[O-])c(C(=O)Nc2ccc3nc(-c4ccccc4)[nH]c3c2)n1	inconclusive: 12.6 µM [inhibitor, single point]	–
COC(=O)c1ccccc1COn1c(=O)c[n+]([O-])c2ccccc21	inconclusive: 17.8 µM [inhibitor, single point]	–
CCOC(=O)C1=C(C)N=C2SC=C(C)N2C1c1ccc(OC)cc1 (stereo unspecified)	inconclusive: 20 µM [inhibitor, single point]	–
Cc1[nH]c2ccc(Br)cc2c(=S)c1C/C=C/Cl	–	inactive: 2%
Cc1ccc(N/C(N)=N/c2nc3c(c(=O)[nH]2)CCCC3)c(C)c1	inconclusive: 2.51 µM [inhibitor, partial curve, poor fit]	–
O=C1CN(C(=O)N[C@@H](Cc2ccccc2)C(=O)N[C@H](Cc2ccccc2)C(=O)O)c2ccccc2N1	–	inactive: 2.14%
C=CCN1C(=O)/C(=C2/Sc3ccc(OC)cc3N2C)SC1=Nc1cccc(O)c1	active: 11.2 µM	–
CCOCCCNC(=O)/C(C#N)=C/c1cc(OC)c(O)c([N+](=O)[O-])c1	inconclusive: 6.31 µM [inhibitor, partial curve, poor fit]	–
Cc1cc(Cl)cc2sc(=S)[nH]c12	–	inactive: -2.4%
CC(C)N1CCc2c(sc(NC(=O)c3ccc(C(=O)c4ccccc4)cc3)c2C(N)=O)C1	inconclusive: 28.2 µM [inhibitor, single point]	–
Cc1ccc(C)c(NC(=O)c2ccc3c(O)c(S(=O)(=O)c4ccc(Cl)cc4)c(=O)[nH]c3c2)c1	–	inactive: 2.84%
CC(=O)Nc1sc(/C(C#N)=C\c2cccc(Cl)c2)nc1-c1ccc(C)cc1	active: 3.98 µM	–
CC1(C)CC(=Cc2cc(O)ccc2[N+](=O)[O-])C(=O)c2ccccc21	–	inactive: -16.7%
N#CCc1ccc(NC(=O)/C=C/c2ccc([N+](=O)[O-])o2)cc1	active: 6.31 µM	–
CC(C)(C)n1nnnc1C(c1cccs1)N(Cc1cccnc1)Cc1ccccc1Cl (stereo unspecified)	–	inactive: -7.54%
N#CC1=C(N)Oc2cc(O)ccc2C1c1ccccc1 (stereo unspecified)	inconclusive: 11.2 µM [inhibitor, single point]	–
CCOC(=O)CSC1=C(C#N)C(c2ccc3c(c2)OCO3)CC(=O)N1 (stereo unspecified)	inconclusive: 11.2 µM [inhibitor, single point]	–
N#C/C(N=Nc1ccccc1O)=N\Nc1ccccc1O	inconclusive: 11.2 µM [inhibitor, partial curve]	–
O=c1[nH]nc(SCCS(=O)(=O)c2ccc(F)cc2)n1-c1ccccc1C(F)(F)F	inconclusive: 28.2 µM [inhibitor, single point]	–
CS(=O)(=O)c1ccc(C(=O)NCCN2C(=O)S/C(=C\c3cccnc3)C2=O)cc1[N+](=O)[O-]	inconclusive: 20 µM [inhibitor, single point]	–
Cc1cc(/C=C2\NC(=S)N(C)C2=O)ccc1N1CCCC1	active: 6.31 µM	–

SMILES	Potency	activity, negative = active
CCN(CC)CCN1C(=O)c2cccc3cc(N)cc(c23)C1=O	inconclusive: 35.5 µM [inhibitor, single point]	–
O=C(CSc1nnc(Cn2cnc3ccccc32)o1)c1ccccc1	inconclusive: 35.5 µM [inhibitor, single point]	–
CCOC(=O)N/N=C/c1c(C)nn(-c2cccc(C(F)(F)F)c2)c1Cl	inconclusive: 1.58 µM [inhibitor, full curve, poor fit]	–
Cc1ccc(C(=O)N/C(=C/c2ccco2)C(=O)NC2CCS(=O)(=O)C2)cc1 (stereo unspecified)	–	inactive: 0%
COc1cccc(C2=CC(c3cc(OC)ccc3OC)n3nnnc3N2)c1 (stereo unspecified)	inconclusive: 3.98 µM [inhibitor, full curve]	–
COc1ccc2[nH]c3c(c2c1)CCNC3C1CC=C(C)CC1 (stereo unspecified)	inconclusive: 11.2 µM [inhibitor, partial curve, poor fit]	–
O=C(NC(=S)Nc1ccc2nc[nH]c2c1)c1ccccc1	inconclusive: 22.4 µM [inhibitor, single point]	–
O=C(Nc1ccc(Cc2ccncc2)cc1)c1ccc([N+](=O)[O-])o1	inconclusive: 12.6 µM [inhibitor, partial curve, poor fit]	–
COc1cccc(N=C2NC(=O)/C(=C/c3cc([N+](=O)[O-])ccc3O)S2)c1	inconclusive: 35.5 µM [inhibitor, single point]	–
COc1cc2nc(C3CC3)n(NC(=O)c3ccc(Cl)cc3)c(=O)c2cc1OC	inconclusive: 17.8 µM [inhibitor, single point]	–
CCN(CC)S(=O)(=O)c1ccc(C)c(NC(=S)N2CCN(C/C=C/c3ccccc3)CC2)c1	–	inactive: 4.41%
COc1ccc(NC(=O)c2cc(-c3ccncc3)nc3ccc(Br)cc23)cc1OC	inconclusive: 17.8 µM [inhibitor, single point]	–
COC(=O)[C@@]1(Cc2ccc(F)cc2)[C@H]2c3cc(C(=O)N(C)C)n(Cc4nc5ccccc5[nH]4)c3C[C@H]2CN1C(=O)c1ccccc1	inconclusive: 31.6 µM [inhibitor, single point]	–
COc1ccccc1C(CNC(=O)c1cccc(NS(=O)(=O)c2ccc(C)c(F)c2)c1)N1CCCC1 (stereo unspecified)	–	inactive: -6.76%
C[C@@H]1CC=C[C@H]2[C@H]1C(=O)N(Cc1ccccc1)[C@H]2c1ccc2ccccc2c1Br	–	inactive: -18.4%
COc1ccc(N2C(=O)CC(Sc3nc(C)c4c(n3)CCCC4)C2=O)cc1 (stereo unspecified)	inconclusive: 10 µM [inhibitor, partial curve]	–
COc1cc(Nc2ccc(C)cc2)c([N+](=O)[O-])nc1[N+](=O)[O-]	inconclusive: 22.4 µM [inhibitor, single point]	–
CCOc1ccc(S(=O)(=O)N(CC)CC)cc1NS(=O)(=O)c1ccc(F)c(F)c1F	–	inactive: -5.17%
Cc1ccc(CN2CCC(CNC(=O)c3cnn(-c4ccccc4Cl)c3C3CCN(C(=O)OC(C)(C)C)CC3)CC2)cc1	inconclusive: 35.5 µM [inhibitor, single point]	–
C#CCOCCOCCOCCNc1nc(N2CCN(C(=O)CCCCCCCCCCNC(=O)[C@@H](CCSC)n3cc(CCO)nn3)CC2)nc(N2CCN(C(=O)CCCCCCCCCCNC(=O)[C@H]([C@@H](C)CC)n3cc(CCCCN=C(N)N)nn3)CC2)n1	inconclusive: 22.4 µM [inhibitor, single point]	–
